The list shows a part of the results.
B1: PhoQ; a variant is named by its letters at X, in order, P23837 (parent)
chain: MKKLLRLFFPLSLRVRFLLATAAVVLVLSLAYGMVALIGYSVSFDKTTFRLLRGESNLFYTLAKWENNKLHVELPENIDKQSPTMTLIYDENGQLLWAQRDVPWLMKMIQPDWLKSNGFHEIEADVNDTSLLLSGDHSIQQQLQEVREDDDDAEMTHSVAVNVYPATSRMPKLTIVVVDTIPVELKSSYMVWSWFIYVLSANLLLVIPLLWVAAWWSLRPIEALAKEVRELEEHNRELLNPATTRELTSLVRNLNRLLKSERERYDKYRTTLTDLTHSLKTPLXXLQXXLRSLRSEKMSVSDAEPVMLEQISRISQQIGYYLHRASMRGGTLLSRELHPVAPLLDNLTSALNKVYQRKGVNISLDISPEISFVGEQNDFVEVMGNVLDNACKYCLEFVEISARQTDEHLYIVVEDDGPGIPLSKREVIFDRGQRVDTLRPGQGVGLAVAREITEQYEGKIVAGESMLGGARMEVIFGRQHSAPKDE

Variants of: B1
Assay: enrichment ratio after two sorts for PhoP signalling (ratio (wild type AVST 3.29)); higher = more functional
Settings: with PhoP (E. coli)

Row | Variant | enrichment ratio
1 | HNLQ | ≤ 0.25
2 | RKGH | ≤ 0.25
3 | PASG | ≤ 0.25
4 | KMIA | ≤ 0.25
5 | VMLP | ≤ 0.25
6 | MERN | ≤ 0.25
7 | WKKS | ≤ 0.25
8 | DMRY | ≤ 0.25
9 | RIDR | ≤ 0.25
10 | FHDH | ≤ 0.25
11 | NQCA | ≤ 0.25
12 | QKTG | ≤ 0.25
13 | GWCV | ≤ 0.25
14 | PASD | 0.521
15 | KLDC | ≤ 0.25
16 | FTAF | ≤ 0.25
17 | TCIG | ≤ 0.25
18 | MTFM | 17.1
19 | NHML | ≤ 0.25
20 | NGYQ | ≤ 0.25
21 | DQVV | ≤ 0.25
22 | YHLH | ≤ 0.25
23 | RCVT | ≤ 0.25
24 | WIHP | ≤ 0.25
25 | MMQS | ≤ 0.25

Row | Variant | enrichment ratio
26 | PRVI | ≤ 0.25
27 | KVFL | ≤ 0.25
28 | KEHC | ≤ 0.25
29 | KRDP | ≤ 0.25
30 | DIER | ≤ 0.25
31 | EMAL | ≤ 0.25
32 | ATGG | 5.79
33 | IKEP | ≤ 0.25
34 | ELID | ≤ 0.25
35 | WDLH | ≤ 0.25
36 | QTLT | ≤ 0.25
37 | MHMS | ≤ 0.25
38 | LINW | ≤ 0.25
39 | SELV | 19.5
40 | PTKS | ≤ 0.25
41 | PDTN | ≤ 0.25
42 | LHWY | ≤ 0.25
43 | VWYH | ≤ 0.25
44 | KPTV | ≤ 0.25
45 | QFKR | ≤ 0.25
46 | PIRQ | ≤ 0.25
47 | KVGW | ≤ 0.25
48 | VSVH | ≤ 0.25
49 | DSAQ | ≤ 0.25
50 | KRAF | ≤ 0.25

Row | Variant | enrichment ratio
51 | GRGD | ≤ 0.25
52 | LGWG | ≤ 0.25
53 | LCLP | ≤ 0.25
54 | WSIL | ≤ 0.25
55 | QSMW | ≤ 0.25
56 | YNSR | ≤ 0.25
57 | MQMC | ≤ 0.25
58 | LDDG | ≤ 0.25
59 | AYPM | ≤ 0.25
60 | IFGC | ≤ 0.25
61 | GSYP | ≤ 0.25
62 | KHNP | ≤ 0.25
63 | NCLR | ≤ 0.25
64 | THQF | 5.14
65 | RRIC | ≤ 0.25
66 | SVRG | ≤ 0.25
67 | FHAL | ≤ 0.25
68 | YSKV | ≤ 0.25
69 | KNIH | ≤ 0.25
70 | NIVI | ≤ 0.25
71 | VDEA | ≤ 0.25
72 | RNRT | ≤ 0.25
73 | ISAM | 0.753
74 | TARN | ≤ 0.25
75 | ENFR | ≤ 0.25

Row | Variant | enrichment ratio
76 | YSTE | ≤ 0.25
77 | SRPC | ≤ 0.25
78 | YKMK | ≤ 0.25
79 | PQTW | ≤ 0.25
80 | MSDR | ≤ 0.25
81 | MPNC | ≤ 0.25
82 | PMNA | ≤ 0.25
83 | ACAW | 7.33
84 | GTRK | ≤ 0.25
85 | LIFF | ≤ 0.25
86 | TAQM | 2.23
87 | YIGW | 0.279
88 | WSNC | ≤ 0.25
89 | IWGV | ≤ 0.25
90 | HPKM | ≤ 0.25
91 | QQAK | ≤ 0.25
92 | FHWQ | ≤ 0.25
93 | AIGK | ≤ 0.25
94 | VRKP | ≤ 0.25
95 | PMHC | ≤ 0.25
96 | TDKS | ≤ 0.25
97 | AIFW | ≤ 0.25
98 | QSYL | 13.9
99 | TVSV | 14.9
100 | AKWY | ≤ 0.25

Row | Variant | enrichment ratio
101 | DCTN | ≤ 0.25
102 | YHPS | ≤ 0.25
103 | EMHT | ≤ 0.25
104 | EMPM | ≤ 0.25
105 | VVCV | ≤ 0.25
106 | WELA | ≤ 0.25
107 | RTME | ≤ 0.25
108 | VVRQ | ≤ 0.25
109 | QHNQ | 5.11
110 | EISF | ≤ 0.25
111 | RFDH | ≤ 0.25
112 | ADHA | ≤ 0.25
113 | IVTM | ≤ 0.25
114 | SAQG | 5.94
115 | YSRT | ≤ 0.25
116 | DLYD | ≤ 0.25
117 | QFCE | ≤ 0.25
118 | SQPN | ≤ 0.25
119 | TRFW | ≤ 0.25
120 | RLFM | ≤ 0.25
121 | NRYI | ≤ 0.25
122 | KCES | ≤ 0.25
123 | PMYY | ≤ 0.25
124 | FQNV | ≤ 0.25
125 | EKTT | ≤ 0.25

Row | Variant | enrichment ratio
126 | TKEA | ≤ 0.25
127 | QTIH | ≤ 0.25
128 | SNNC | 18.6
129 | HIGI | ≤ 0.25
130 | RKWT | ≤ 0.25
131 | DDYW | ≤ 0.25
132 | IKYQ | ≤ 0.25
133 | RQYR | ≤ 0.25
134 | IPFV | ≤ 0.25
135 | WFVM | ≤ 0.25
136 | QKAH | ≤ 0.25
137 | PKRC | ≤ 0.25
138 | YTYM | ≤ 0.25
139 | SSHS | ≤ 0.25
140 | MVPH | ≤ 0.25
141 | GKLE | ≤ 0.25
142 | IIDK | ≤ 0.25
143 | RNCE | ≤ 0.25
144 | FIPF | ≤ 0.25
145 | PPTF | ≤ 0.25
146 | IFDN | ≤ 0.25
147 | WDSV | ≤ 0.25
148 | NYPS | ≤ 0.25
149 | NKRP | ≤ 0.25
150 | HWKP | ≤ 0.25

Row | Variant | enrichment ratio
151 | HQIH | ≤ 0.25
152 | KRRV | ≤ 0.25
153 | DHSM | ≤ 0.25
154 | NGDC | ≤ 0.25
155 | QAKI | ≤ 0.25
156 | SYYK | ≤ 0.25
157 | KAAE | ≤ 0.25
158 | RCHA | ≤ 0.25
159 | AYTK | ≤ 0.25
160 | YVGK | ≤ 0.25
161 | AVAF | 8.24
162 | VAID | ≤ 0.25
163 | LFHT | ≤ 0.25
164 | ICLH | ≤ 0.25
165 | HLCL | 1.19
166 | TASM | 13.4
167 | NSTF | ≤ 0.25
168 | ELQV | ≤ 0.25
169 | FYQG | ≤ 0.25
170 | FMVV | ≤ 0.25
171 | GGSN | ≤ 0.25
172 | ICKS | ≤ 0.25
173 | EEYD | ≤ 0.25
174 | TDKG | ≤ 0.25
175 | LIVM | ≤ 0.25

Row | Variant | enrichment ratio
176 | NFVK | ≤ 0.25
177 | PAIA | ≤ 0.25
178 | QMDT | ≤ 0.25
179 | SRNS | ≤ 0.25
180 | YNFE | ≤ 0.25
181 | NYIW | ≤ 0.25
182 | NHAY | ≤ 0.25
183 | VMEK | ≤ 0.25
184 | GKPP | ≤ 0.25
185 | HDQK | ≤ 0.25
186 | APNN | ≤ 0.25
187 | LDKE | 1.03
188 | PLNP | ≤ 0.25
189 | YTLP | ≤ 0.25
190 | ETRV | ≤ 0.25
191 | DGKY | ≤ 0.25
192 | NYKL | ≤ 0.25
193 | WINL | ≤ 0.25
194 | ERKF | ≤ 0.25
195 | NLQH | ≤ 0.25

Reference: a collection of fitness landscapes (doi:10.1126/science.1257360)
